The test system of one assay is HSkMC. Kind of assay: cytotoxicity call (relative viability < 0.9). The following applies: 10 µM.
The next assay deals with HepG2. Description: cytotoxicity call (relative viability < 0.9). Conditions: 10 µM.
The next assay relates to S. aureus RN4220. Description: growth inhibition call (relative growth <= 0.2). Conditions: 50 µM.

Some of the results follow.

As to `C[C@@H]1CCCCO[C@@H](CN(C)C(=O)CCCN(C)C)[C@@H](C)CN([C@H](C)CO)C(=O)c2cc(NC(=O)Nc3ccc(F)cc3)ccc2O1`, the cytotoxicity call in the assay with HSkMC and with HepG2 was “inactive” throughout. The growth inhibition call in the assay with S. aureus RN4220 is “inactive”.

As to `CC(=O)OCC[N+](C)(C)C`, the cytotoxicity call in the assay with HSkMC and in the assay with HepG2 was “inactive” each time. In addition, the growth inhibition call with S. aureus RN4220 was “inactive”.

Take `CC/1=C(CCC(=O)O)/C/2=C/c3[nH]c(c(c3CCC(=O)O)C)/C=C/3\N=C(/C=C/4\N=C(\C=C1/N2)C(=C4C)C=C)C(=C3C)C=C`: the cytotoxicity call in the assay with HSkMC was “inactive”. Besides, the cytotoxicity call in the assay with HepG2 is “active”. Also, the growth inhibition call in the assay with S. aureus RN4220 was “inactive”.

As for `CC(=O)N1c2ccccc2C2=NNC(=S)N[C@]21O`, the cytotoxicity call with HSkMC and in the assay with HepG2 was “inactive” in each case. Besides, in the assay with S. aureus RN4220, the growth inhibition call was “inactive”.

`C[C@@H]1CN([C@@H](C)CO)C(=O)c2cc(NS(=O)(=O)c3ccc(F)cc3)ccc2O[C@@H]1CN(C)Cc1ccc(Oc2ccccc2)cc1`: the cytotoxicity call with HSkMC and with HepG2 was “active” throughout. Besides, the growth inhibition call in the assay on S. aureus RN4220 was “inactive”.

Take `CC12CCC(=O)C=C1CCC1C2CCC2(C)C1CCC2(O)C(=O)CO` (centres undefined): the cytotoxicity call in the assay with HSkMC and in the assay with HepG2 was “inactive” throughout. In addition, in the assay on S. aureus RN4220, the growth inhibition call is “inactive”.

With `O=C(N/N=C/c1ccc(B(O)O)cc1)c1ccccn1`, the cytotoxicity call with HSkMC and with HepG2 was “inactive” each time. The growth inhibition call in the assay on S. aureus RN4220 was “inactive”.

Consider `CCO[C@@H]1OC(C(=O)N2CCCCCCC2)=C[C@H](c2coc3ccccc3c2=O)[C@H]1CCCOC(=O)NCCCCCC(=O)NO`, for which the cytotoxicity call with HSkMC and in the assay with HepG2 was “inactive” in each case. For the same compound, the growth inhibition call in the assay on S. aureus RN4220 was “inactive”.

Take `COc1ccc(S(=O)(=O)N(C)C[C@@H]2Oc3ccc(NC(=O)NC(C)C)cc3C(=O)N([C@@H](C)CO)C[C@@H]2C)cc1`: the cytotoxicity call in the assay with HSkMC and with HepG2 was “inactive” each time. For the same compound, in the assay on S. aureus RN4220, the growth inhibition call was “inactive”.

On to `C[C@H](CO)N1C[C@H](C)[C@@H](CN(C)Cc2ccncc2)Oc2ccc(NS(=O)(=O)c3ccccc3)cc2CC1=O`, for which the cytotoxicity call in the assay on HSkMC and in the assay on HepG2 was “inactive” throughout. Besides, in the assay on S. aureus RN4220, the growth inhibition call was “inactive”.

For `COc1ccc(NC(=O)Nc2cccc3c2O[C@@H](CN(C)Cc2ccc(Oc4ccccc4)cc2)[C@@H](C)CN([C@@H](C)CO)C3=O)cc1`, the cytotoxicity call in the assay on HSkMC is “inactive”. Further, the cytotoxicity call in the assay with HepG2 was “active”. Further, the growth inhibition call in the assay with S. aureus RN4220 was “inactive”.

`C[C@@H]1CN([C@H](C)CO)C(=O)c2cc(NS(=O)(=O)c3cccs3)ccc2O[C@@H]1CN(C)S(C)(=O)=O`: the cytotoxicity call in the assay on HSkMC and with HepG2 was “inactive” each time. The growth inhibition call with S. aureus RN4220 was “inactive”.

Turning to `COc1cccc(c1)CN1CC[C@]2(CC1)CN([C@H](CO)c1c2c2ccc(cc2n1C)OC)C(=O)Nc1ccc(cc1)F`, the cytotoxicity call in the assay with HSkMC and in the assay on HepG2 was “inactive” throughout. The growth inhibition call in the assay on S. aureus RN4220 was “inactive”.

Regarding `COc1ccc(S(=O)(=O)N(C)C[C@@H]2Oc3c(NS(C)(=O)=O)cccc3C(=O)N([C@H](C)CO)C[C@H]2C)cc1`, the cytotoxicity call in the assay with HSkMC and in the assay on HepG2 was “inactive” throughout. Also, the growth inhibition call in the assay on S. aureus RN4220 is “inactive”.

For the compound `C[C@@H]1CN([C@H](C)CO)C(=O)Cc2cc(NS(=O)(=O)c3cn(C)cn3)ccc2O[C@@H]1CN(C)C`, the cytotoxicity call in the assay on HSkMC and in the assay with HepG2 was “inactive” throughout. For the same compound, in the assay with S. aureus RN4220, the growth inhibition call was “inactive”.

For `C[C@H]1CN([C@@H](C)CO)C(=O)c2cc(NS(=O)(=O)c3cccs3)ccc2O[C@H]1CN(C)Cc1ccc(-c2ccccc2)cc1`, the cytotoxicity call with HSkMC and with HepG2 was “inactive” throughout. Further, the growth inhibition call with S. aureus RN4220 was “inactive”.

With `CC(C)(C)OC(=O)N[C@H]1CCCCC/C=C\[C@@H]2C[C@@]2(C(=O)NS(=O)(=O)C2CC2)NC(=O)[C@@H]2C[C@@H](OC(=O)N3Cc4cccc(F)c4C3)CN2C1=O`, the cytotoxicity call in the assay on HSkMC and in the assay on HepG2 was “inactive” throughout. Further, the growth inhibition call with S. aureus RN4220 was “inactive”.

As to `C[C@H]1CN([C@@H](C)CO)C(=O)Cc2cc(NS(=O)(=O)c3cn(C)cn3)ccc2O[C@H]1CN(C)Cc1ccncc1`, the cytotoxicity call in the assay on HSkMC and in the assay on HepG2 was “inactive” throughout. Besides, the growth inhibition call in the assay with S. aureus RN4220 was “inactive”.

As for `CCc1c(Cl)c(O)c(Cl)c(O)c1C(=O)O[C@H]1[C@H](O)[C@H](OC)[C@H](OC/C2=C\C=C\C[C@H](O)/C(C)=C/[C@H](CC)[C@@H](O[C@@H]3OC(C)(C)[C@@H](OC(=O)C(C)C)[C@H](O)[C@@H]3O)/C(C)=C/C(C)=C/C[C@@H]([C@@H](C)O)OC2=O)O[C@@H]1C`, the cytotoxicity call with HSkMC was “active”. Further, the cytotoxicity call with HepG2 was “inactive”. Besides, the growth inhibition call with S. aureus RN4220 is “inactive”.

Take `C[C@@H]1CN([C@@H](C)CO)C(=O)c2cc(NC(=O)NC3CCCCC3)ccc2O[C@@H](C)CCCCO[C@@H]1CN(C)Cc1ccccc1`: the cytotoxicity call in the assay on HSkMC and in the assay on HepG2 was “inactive” each time. Further, the growth inhibition call in the assay with S. aureus RN4220 was “inactive”.

On to `COCc1cn([C@H]2C[C@H](O)[C@@H](CO)O2)c(=O)[nH]c1=O`, for which the cytotoxicity call in the assay on HSkMC and in the assay with HepG2 was “inactive” each time. Also, the growth inhibition call with S. aureus RN4220 is “inactive”.

Consider `C[C@@H]1CCCCO[C@@H](CN(C)C(=O)NC2CCCCC2)[C@@H](C)CN([C@@H](C)CO)C(=O)c2cc(NC(=O)C3CCCCC3)ccc2O1`, for which the cytotoxicity call with HSkMC and in the assay on HepG2 was “inactive” throughout. The growth inhibition call in the assay on S. aureus RN4220 is “inactive”.

As for `CCOC(=O)Cc1nnc(CC(=O)OCC)[nH]1`, the cytotoxicity call in the assay with HSkMC and in the assay with HepG2 was “inactive” each time. The growth inhibition call with S. aureus RN4220 is “inactive”.

Take `C[C@@H]1CN([C@H](C)CO)C(=O)c2cccc(NC(=O)c3ccc(-c4nccs4)cc3)c2O[C@@H]1CN(C)C(=O)Nc1ccc(F)cc1`: the cytotoxicity call in the assay on HSkMC and in the assay with HepG2 was “inactive” each time. Moreover, the growth inhibition call in the assay on S. aureus RN4220 was “inactive”.

With `C[C@@H]1CCCCO[C@@H](CN(C)C(=O)Nc2ccc3c(c2)OCO3)[C@H](C)CN([C@@H](C)CO)C(=O)c2cc(NC(=O)Nc3ccc(F)cc3)ccc2O1`, the cytotoxicity call in the assay on HSkMC and with HepG2 was “inactive” each time. For the same compound, the growth inhibition call with S. aureus RN4220 was “inactive”.

As to `C[C@H](CO)N1C[C@H](C)[C@@H](CN(C)C(=O)CN(C)C)Oc2ncc(C#CC3(O)CCCC3)cc2C1=O`, the cytotoxicity call with HSkMC and with HepG2 was “inactive” throughout. Besides, the growth inhibition call in the assay with S. aureus RN4220 is “inactive”.

With `O=C(Nc1cccc2cccnc12)[C@@H]1[C@H](c2ccc(C(F)(F)F)cc2)CC(=O)N1C(=O)OCc1ccccc1`, the cytotoxicity call in the assay on HSkMC (human skeletal muscle cells) and in the assay on HepG2 was “inactive” in each case. Besides, in the assay with S. aureus RN4220, the growth inhibition call is “inactive”.

With `C[C@@H]1CN([C@H](C)CO)S(=O)(=O)c2ccc(C#Cc3ccccn3)cc2O[C@H]1CN(C)Cc1ccccc1`, the cytotoxicity call with HSkMC and in the assay with HepG2 was “inactive” each time. In addition, the growth inhibition call with S. aureus RN4220 is “inactive”.

Source of the values: the antibiotic and cytotoxicity screens of Wong et al. (2023).
